{"source": "the supplement of paper PMC4604168 (melanoma cell lines)", "test_in_all_cases": "cell count relative to DMSO control; melanoma cells; higher = more viable cells", "conditions_in_all_cases": "library dose: low library concentration; 72 h", "key": {"WM115": {"system": "WM115"}, "WM1716": {"system": "WM1716"}, "WM1745": {"system": "WM1745"}, "WM3526": {"system": "WM3526"}, "WM3619": {"system": "WM3619"}, "WM451Lu": {"system": "WM451Lu"}}, "note": "The other results are listed elsewhere or left out. Most values come without repeats; read them as rough.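 Also: cell number obtained by counting DAPI-stained nuclei in high-throughput microscope images with image analysis software, screen run in 1,536-well plates.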", "data": [{"smiles": "C[C@]12O[C@H](C[C@]1(O)CO)n1c3ccccc3c3c4c(c5c6ccccc6n2c5c31)CNC4=O", "note": "[Lestaurtinib] + COc1cc(Nc2ncc(F)c(Nc3ccc4c(n3)NC(=O)C(C)(C)O4)n2)cc(OC)c1OC [Tamatinib] (first compound 0.004 µM, partner dose 0.4 µM)", "values": [{"measurement": "cell count", "setting": "WM115", "value": 93.9, "unit": "%"}, {"measurement": "cell count", "setting": "WM1716", "value": 107, "unit": "%"}, {"measurement": "cell count", "setting": "WM1745", "value": 69.7, "unit": "%"}, {"measurement": "cell count", "setting": "WM3526", "value": 89.9, "unit": "%"}, {"measurement": "cell count", "setting": "WM3619", "value": 104, "unit": "%"}, {"measurement": "cell count", "setting": "WM451Lu", "value": 93, "unit": "%"}]}, {"smiles": "C[As](C)SC[C@H](NC(=O)CC[C@H](N)C(=O)O)C(=O)NCC(=O)O", "note": "[Darinaparsin] + C=CCn1c(=O)c2cnc(Nc3ccc(N4CCN(C)CC4)cc3)nc2n1-c1cccc(C(C)(C)O)n1 [MK1775] (first compound 0.4 µM, partner dose 0.02 µM)", "values": [{"measurement": "cell count", "setting": "WM115", "value": 70.8, "unit": "%"}, {"measurement": "cell count", "setting": "WM1716", "value": 72.4, "unit": "%"}, {"measurement": "cell count", "setting": "WM1745", "value": 85.9, "unit": "%"}, {"measurement": "cell count", "setting": "WM3526", "value": 78.5, "unit": "%"}, {"measurement": "cell count", "setting": "WM3619", "value": 50.3, "unit": "%"}, {"measurement": "cell count", "setting": "WM451Lu", "value": 70.8, "unit": "%"}]}, {"smiles": "N.N.[Cl][Pt][Cl]", "note": "[cisplatin] + Cn1cncc1[C@@](N)(c1ccc(Cl)cc1)c1ccc2c(c1)c(-c1cccc(Cl)c1)cc(=O)n2C [tipifarnib] (first compound 1.6 µM, partner dose 0.01 µM)", "values": [{"measurement": "cell count", "setting": "WM115", "value": 96.6, "unit": "%"}, {"measurement": "cell count", "setting": "WM1716", "value": 85.6, "unit": "%"}, {"measurement": "cell count", "setting": "WM1745", "value": 95, "unit": "%"}, {"measurement": "cell count", "setting": "WM3526", "value": 87.6, "unit": "%"}, {"measurement": "cell count", "setting": "WM3619", "value": 108, "unit": "%"}, {"measurement": "cell count", "setting": "WM451Lu", "value": 90.3, "unit": "%"}]}, {"smiles": "N.N.[Cl][Pt][Cl]", "note": "[cisplatin] + COc1cc2c(Oc3ccc4[nH]c(C)cc4c3F)ncnc2cc1OCCCN1CCCC1 [cediranib] (first compound 1.6 µM, partner dose 0.4 µM)", "values": [{"measurement": "cell count", "setting": "WM115", "value": 94.5, "unit": "%"}, {"measurement": "cell count", "setting": "WM1716", "value": 94.8, "unit": "%"}, {"measurement": "cell count", "setting": "WM1745", "value": 115, "unit": "%"}, {"measurement": "cell count", "setting": "WM3526", "value": 92.4, "unit": "%"}, {"measurement": "cell count", "setting": "WM3619", "value": 114, "unit": "%"}, {"measurement": "cell count", "setting": "WM451Lu", "value": 120, "unit": "%"}]}, {"smiles": "Cn1cc(C2=C(c3cn(C4CCN(Cc5ccccn5)CC4)c4ccccc34)C(=O)NC2=O)c2ccccc21", "note": "[Enzastaurin] + O=C(O)c1ccc(-c2c[nH]c3ncc(-c4ccccc4)cc23)cc1C1CCCC1 [GSK650394] (first compound 0.8 µM, partner dose 0.16 µM)", "values": [{"measurement": "cell count", "setting": "WM115", "value": 112, "unit": "%"}, {"measurement": "cell count", "setting": "WM1716", "value": 85.5, "unit": "%"}, {"measurement": "cell count", "setting": "WM1745", "value": 82.7, "unit": "%"}, {"measurement": "cell count", "setting": "WM3526", "value": 93.8, "unit": "%"}, {"measurement": "cell count", "setting": "WM3619", "value": 99.2, "unit": "%"}, {"measurement": "cell count", "setting": "WM451Lu", "value": 136, "unit": "%"}]}, {"smiles": "C[C@]12O[C@H](C[C@]1(O)CO)n1c3ccccc3c3c4c(c5c6ccccc6n2c5c31)CNC4=O", "note": "[Lestaurtinib] + O=C(O)c1ccc(-c2c[nH]c3ncc(-c4ccccc4)cc23)cc1C1CCCC1 [GSK650394] (first compound 0.004 µM, partner dose 0.16 µM)", "values": [{"measurement": "cell count", "setting": "WM115", "value": 89.2, "unit": "%"}, {"measurement": "cell count", "setting": "WM1716", "value": 100, "unit": "%"}, {"measurement": "cell count", "setting": "WM1745", "value": 84.9, "unit": "%"}, {"measurement": "cell count", "setting": "WM3526", "value": 95, "unit": "%"}, {"measurement": "cell count", "setting": "WM3619", "value": 116, "unit": "%"}, {"measurement": "cell count", "setting": "WM451Lu", "value": 107, "unit": "%"}]}, {"smiles": "N.N.[Cl][Pt][Cl]", "note": "[cisplatin] + CO[C@H]1C[C@@H]2CC[C@@H](C)[C@@](O)(O2)C(=O)C(=O)N2CCCC[C@H]2C(=O)O[C@H]([C@H](C)C[C@@H]2CC[C@@H](OCCO)[C@H](OC)C2)CC(=O)[C@H](C)/C=C(\\C)[C@@H](O)[C@@H](OC)C(=O)[C@H](C)C[C@H](C)/C=C/C=C/C=C/1C [everolimus] (first compound 1.6 µM, partner dose 0.02 µM)", "values": [{"measurement": "cell count", "setting": "WM115", "value": 88.1, "unit": "%"}, {"measurement": "cell count", "setting": "WM1716", "value": 74.4, "unit": "%"}, {"measurement": "cell count", "setting": "WM1745", "value": 88.5, "unit": "%"}, {"measurement": "cell count", "setting": "WM3526", "value": 75.2, "unit": "%"}, {"measurement": "cell count", "setting": "WM3619", "value": 73.4, "unit": "%"}, {"measurement": "cell count", "setting": "WM451Lu", "value": 86.1, "unit": "%"}]}, {"smiles": "C[C@]12O[C@H](C[C@]1(O)CO)n1c3ccccc3c3c4c(c5c6ccccc6n2c5c31)CNC4=O", "note": "[Lestaurtinib] + CN1CCN(c2ccc3nc(-c4c(N)c5c(F)cccc5[nH]c4=O)[nH]c3c2)CC1 [Dovitinib] (first compound 0.004 µM, partner dose 0.1 µM)", "values": [{"measurement": "cell count", "setting": "WM115", "value": 88.2, "unit": "%"}, {"measurement": "cell count", "setting": "WM1716", "value": 102, "unit": "%"}, {"measurement": "cell count", "setting": "WM1745", "value": 86.7, "unit": "%"}, {"measurement": "cell count", "setting": "WM3526", "value": 70.7, "unit": "%"}, {"measurement": "cell count", "setting": "WM3619", "value": 94.8, "unit": "%"}, {"measurement": "cell count", "setting": "WM451Lu", "value": 81.1, "unit": "%"}]}, {"smiles": "C[C@]12O[C@H](C[C@]1(O)CO)n1c3ccccc3c3c4c(c5c6ccccc6n2c5c31)CNC4=O", "note": "[Lestaurtinib] + N.N.[Cl][Pt][Cl] [cisplatin] (first compound 0.004 µM, partner dose 1.6 µM)", "values": [{"measurement": "cell count", "setting": "WM115", "value": 90.2, "unit": "%"}, {"measurement": "cell count", "setting": "WM1716", "value": 94.1, "unit": "%"}, {"measurement": "cell count", "setting": "WM1745", "value": 79.2, "unit": "%"}, {"measurement": "cell count", "setting": "WM3526", "value": 82.3, "unit": "%"}, {"measurement": "cell count", "setting": "WM3619", "value": 80.2, "unit": "%"}, {"measurement": "cell count", "setting": "WM451Lu", "value": 87.9, "unit": "%"}]}, {"smiles": "N.N.[Cl][Pt][Cl]", "note": "[cisplatin] + O=C(Nc1cccc(Cl)c1)Nc1ncc(CCNc2ncnc3ccsc23)s1 [SNS314] (first compound 1.6 µM, partner dose 0.0008 µM)", "values": [{"measurement": "cell count", "setting": "WM115", "value": 74.2, "unit": "%"}, {"measurement": "cell count", "setting": "WM1716", "value": 109, "unit": "%"}, {"measurement": "cell count", "setting": "WM1745", "value": 101, "unit": "%"}, {"measurement": "cell count", "setting": "WM3526", "value": 103, "unit": "%"}, {"measurement": "cell count", "setting": "WM3619", "value": 79.4, "unit": "%"}, {"measurement": "cell count", "setting": "WM451Lu", "value": 116, "unit": "%"}]}]}
